# Data as given in PMC6919601, “Identification of Plasmodium dipeptidyl aminopeptidase allosteric inhibitors by high throughput screening” (PLoS ONE, 2019).
# Values joined by “and” are separate entries in the source; they are usually repeats but may differ in a detail not shown here. Identical values can stand only once. The campaign covered roughly 110,000 compounds. About 230 (0.21%) showed an effect of 50% or more. The list shows a part of the results.
# Biological target: DPAP1 (Plasmodium falciparum, UniProt Q8IIJ9)
# Sequence (Q8IIJ9 whole entry, looked up): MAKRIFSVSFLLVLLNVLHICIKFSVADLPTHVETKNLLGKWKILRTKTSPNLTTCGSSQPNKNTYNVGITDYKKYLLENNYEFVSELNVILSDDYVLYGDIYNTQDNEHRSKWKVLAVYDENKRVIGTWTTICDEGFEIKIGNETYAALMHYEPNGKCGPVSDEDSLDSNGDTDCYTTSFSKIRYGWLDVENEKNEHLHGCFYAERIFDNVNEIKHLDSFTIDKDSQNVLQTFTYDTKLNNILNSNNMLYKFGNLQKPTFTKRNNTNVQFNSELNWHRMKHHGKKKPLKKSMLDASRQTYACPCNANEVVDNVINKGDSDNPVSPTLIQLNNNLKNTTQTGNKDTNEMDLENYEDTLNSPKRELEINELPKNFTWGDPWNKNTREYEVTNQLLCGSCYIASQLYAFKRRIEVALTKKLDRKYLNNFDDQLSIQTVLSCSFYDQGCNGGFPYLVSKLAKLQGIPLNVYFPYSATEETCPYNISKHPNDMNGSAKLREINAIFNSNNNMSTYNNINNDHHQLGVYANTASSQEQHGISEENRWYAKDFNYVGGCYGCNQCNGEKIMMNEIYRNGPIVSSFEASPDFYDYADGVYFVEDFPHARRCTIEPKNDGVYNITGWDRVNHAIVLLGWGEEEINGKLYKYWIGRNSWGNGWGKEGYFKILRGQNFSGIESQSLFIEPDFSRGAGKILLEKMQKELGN
# Test: primary screen, percent inhibition; read by cleavage of a fluorogenic dipeptide substrate; higher = more effect of the substance
# Parameters: species or system P. falciparum D10 trophozoite lysates; single well
# 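Note: 30 min substrate incubation versus DMSO and 10 µM JCP410 controls.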
row,Structure (SMILES),% Inhibition @ 10 uM
1,O=C1C=C(Nc2ccccc2)C(=O)N1c1ccccc1Cl,5.9%
2,Cc1ccc(NC(=O)CN2C(=O)S/C(=C\c3cc4c(cc3Cl)OCO4)C2=O)cc1,-3.71%
3,C=Cc1ccc(Cn2c(C(=O)O)c(CNC3CCN(C(=O)OCC)CC3)c3ccccc32)cc1,5.09%
4,CC1CC(C)(C)N(C=O)c2ccccc21 (centres unmarked),-2.08%
5,CCN1CCN(Cc2cc(Br)c(O)c(OC)c2)CC1,1.55%
6,Cc1ccc(C(=O)Nc2ccc(C(C)C)cc2)o1,0.316%
7,COc1cccc2cc(S(=O)(=O)c3ccc(C(C)(C)C)cc3)c(=O)oc12,-9.17%
8,Cc1ccc(OC(C)C(=O)Nc2ccc(O)cc2)cc1 (centres unmarked),1.28%
9,CC(C)CNS(=O)(=O)c1ccc(OCC(=O)Nc2cc(C(F)(F)F)ccc2Cl)cc1,1.64%
10,Cc1noc(/C=C/c2ccccc2F)c1S(=O)(=O)N1CCC(C(=O)NC(C)C)CC1,-5.27%
11,Fc1cccc(F)c1CN1CCOCC1,-5.31%
12,Cc1ccccc1-c1ccc(C(=O)N[C@@H](CC(C)C)C(=O)NCC#N)s1,-10.1%
13,N#CC1=C(N)OC2=C(C(=O)CC(c3ccccc3)C2)C1c1cccc(Br)c1 (centres unmarked),-7.5%
14,COc1ccc(-c2cc(C(F)(F)F)n3nc(C(=O)N4CCOCC4)cc3n2)cc1,0.812%
15,O=C(Nc1ccc(S(=O)(=O)Nc2nccs2)cc1)c1cccc(Oc2ccccc2)c1,1.24%
16,COc1ccc(OC)c(NC(=O)Cc2ccc(Br)cc2)c1,-2.76%
17,NC(=O)C1CCCN(Cc2ccccc2C(F)(F)F)C1 (centres unmarked),-4.04%
18,COc1ccc(CNC(=O)c2ccc(CS(=O)(=O)Cc3ccccc3F)o2)cc1,0.718%
19,COc1cc(S(=O)(=O)Nc2cccnc2)c(OC)cc1Cl,-10.2%
20,COc1cc(C2C(C#N)=C(N)Oc3c2c(C)nn3-c2ccccc2)cc(OC)c1OC (centres unmarked),-2.89%
21,Oc1nc(SCc2cccc3nsnc23)nc2ccccc12,4.55%
22,O=C(CCCOc1ccc(Cl)cc1Cl)N1CCCCC1CO (centres unmarked),0.215%
23,Cc1ccc(C2=NS(=O)(=O)N(C)C(C(=O)N3CCN(Cc4ccccc4)CC3)=C2)cc1,-1.06%
24,O=C(O)CCCCCN1C(=O)C(O)=C(C(=O)/C=C/c2ccccc2)C1c1ccccc1 (centres unmarked),-7.58%
25,CCn1cc(Cl)c(C(=O)NC(C)c2ccc(C(C)(C)C)cc2)n1 (centres unmarked),0.658%
26,CN(Cc1ccc(Cl)cc1)S(=O)(=O)c1nnc(NC(=O)c2cccs2)s1,-3.8%

row,Structure (SMILES),% Inhibition @ 10 uM
1,Cc1ccc(OCCCCc2c(C)n[nH]c2C)cc1C,0.815%
2,COc1ccc(Cl)cc1NC(=O)COc1ccccc1C(C)C,2.76%
3,CCOc1ccc(CCNc2cnnc3c(Cl)cccc23)cc1OCC,-0.705%
4,CC(C)C[C@H](Nc1nc(=O)oc2ccccc12)C(=O)NCC#N,-3.48%
5,COc1cccc(N(CC(=O)Nc2cc(C)ccc2C)S(=O)(=O)c2ccccc2)c1,-0.333% and 3.72%
6,CCCN1CNc2nc3ccccc3n2C1,1.72%
7,COc1ccccc1N1CCN(C(=O)c2cccc(F)c2)CC1,-7.02%
8,Cc1ccc(CN2C(=O)c3ccc(C)cc3C2=O)cc1,4.44%
9,CCOc1ccc2nc(SCC(=O)Nc3ccccc3OC)sc2c1,4.32%
10,CN(CCc1ccccc1)Cc1ccc(O)cc1,0.472%
11,O=C(Nc1nc(-c2ccc(F)cc2F)cs1)c1ccc2c(c1)OCO2,-3.72%
12,Cc1ccc2nc3c(O)n(CCN4CCCCC4C)cnc-3c2c1 (centres unmarked),4.8%
13,COc1ccc(C2CC(=O)C(/C=N/Cc3ccccc3)=C(O)C2)cc1 (centres unmarked),0.685%
14,COc1ccc(CCC(=O)Nc2ccc(C)cc2Br)cc1,2.01%
15,O=C1CCCC2=C1C(c1ccc(Cl)cc1)C1=C(CCCC1=O)O2,1.9%
16,CC(C)CCNC(=O)c1cc2oc3ccccc3c2n1C,-0.281%
17,O=C(NCc1ccccc1)c1ccccc1NC(=O)C1CC=CCC1C(=O)O (centres unmarked),-2.29%
18,Oc1ccc(CNc2ccc(F)cc2)c2cccnc12,2.84%
19,CCOc1ccc(-c2nonc2NC(=O)COc2c(C)cccc2C)cc1OCC,-1.47%
20,CC(C)(C)OC(=O)N1CCC(c2c(C(=O)Nc3cccnc3)cnn2-c2ccccc2)CC1,5.53%
21,O=S(=O)(c1cccc(S(=O)(=O)N2CCOCC2)c1)c1ccc(Cl)c(S(=O)(=O)N2CCOCC2)c1,3.25%
22,Cc1cc(C(=O)O)c2c(C)nn(-c3ccc(C)c(C)c3)c2n1,2.39%
23,N#CCN1C(=O)C(O)=C(C(=O)c2ccccc2)C1c1cccnc1 (centres unmarked),0.408%
24,Cc1ccc(CS(=O)(=O)CCC(=O)NCCCN2CCCC2)cc1,2.18%
25,O=C(O)c1ccc(-c2nnc(-c3cccc(Br)c3)o2)cc1,1.26%
26,CCn1c2ccccc2c2nnc(NCCc3ccc(Cl)cc3)nc21,3.92%

row,Structure (SMILES),% Inhibition @ 10 uM
1,COc1ccc(C(=O)Nc2ccc3ccccc3c2)c(OC)c1,0.467%
2,CCCCOc1ccc(NC(=O)c2ccc(F)cc2)cc1,2.13%
3,CNS(=O)(=O)c1cn(CC(=O)Nc2nccs2)cc1S(=O)(=O)NC,-2.68%
4,CCCCN(C)c1ncnc2c1sc1nc(C(C)C)c3c(c12)CC(C)(C)OC3,-3.13%
5,O=C(Cn1cnc2c(oc3ccccc32)c1=O)NCc1ccc(F)cc1,-3.27%
6,CC(C)COc1ccc(C(O)C(CN2CCCC2)c2ccccc2)cc1 (centres unmarked),2.78%
7,COc1ccc(OC)c(C2CC(=O)N(c3sc4c(c3C#N)CCCCC4)C3=C2C(=O)CCC3)c1 (centres unmarked),2.72%
8,CCCc1cc(O)nc(SCC(=O)Nc2ccccc2)n1,-10.8%
9,O=C(NCCN1CCOCC1)c1cc(-c2ccc(Cl)cc2Cl)nc2ccccc12,-1.89%
10,CCOC(=O)N1CCN(C2CCC(C)C2)CC1 (centres unmarked),1.74%
11,FC(F)Oc1ccccc1C1CC(c2ccc(Br)cc2)Nc2nnnn21 (centres unmarked),-5.19%
12,CC1=C(C)CC(C(=O)NCc2ccc(F)cc2)C(C(=O)O)C1 (centres unmarked),8.6%
13,COc1ccc(OC)c(-c2nc(C)sc2CC(=O)O)c1,0.032%
14,CCC(C)NCc1c(C(=O)O)n(Cc2ccccc2F)c2cc(C)ccc12 (centres unmarked),-1.08%
15,CCc1c(C)sc(NC(=O)c2cc(-c3ccc(Cl)cc3)on2)c1C#N,-4.07%
16,O=C1C2CC=C(Cl)CC2C(=O)N1CCN1CCCCC1 (centres unmarked),6.69%
17,CSc1ccccc1NC(=O)C1C2CCC(C2)C1C(=O)O (centres unmarked),-0.996%
18,COCCNC(=O)C1=Cc2sc3c(c2CS1)CCCC3,3.54%
19,N#CC1=C(N)Oc2[nH]nc(-c3ccc4ccccc4c3)c2C1c1ccncc1 (centres unmarked),-3.16%
20,Cc1cc(-c2ccc(S(=O)(=O)N3CCN(C4CCCCC4)CC3)s2)on1,-5.5%
21,CC(C)C[C@H](NC(=O)OCc1ccccc1)C(=O)N[C@@H](CCc1ccccc1)C(=O)C(C)(C)O,0.744%
22,Nc1cnn(C2OC(CO)C(O)C2O)c(=O)n1 (centres unmarked),-1.26%
23,O=C(C1CCN(S(=O)(=O)c2c[nH]cn2)CC1)N1CCC(Cc2ccccc2)CC1,-2.29%
24,Cc1onc(-c2ccccc2)c1C(=O)N1CCN(C)CC1,-2.2%
25,Cc1ccc(Oc2nc3ccccn3c(=O)c2/C=C(\C#N)C(=O)NC2CCCC2)cc1,-6.23%
26,O=C(NCCc1ccccc1)c1cc2ccccc2o1,-2.27%

row,Structure (SMILES),% Inhibition @ 10 uM
1,O=C(NCc1ccncc1)c1ccc(Br)cc1,-3.82%
2,CCNC(=O)COc1ccc(S(=O)(=O)NC2CCCCC2)cc1,2.17%
3,CCOc1ccccc1/C=C1/SC(=O)N(CN2CCCCC2)C1=O,-0.63%
4,CCCCOc1ccc(NS(=O)(=O)c2ccc(Br)cc2C)cc1,2.7%
5,C=CC/N=C/C1=C(O)CC(C)(C)CC1=O,-3.06%
6,CC(NC(=O)C1(S(=O)(=O)c2ccc(Cl)cc2)CC1)c1ccccc1 (centres unmarked),-0.0508%
7,CC1(C)CC(=O)C(CCC#N)C(=O)C1,-1.8%
8,CCCCNC(=O)CN(C)S(=O)(=O)c1cc(Cl)ccc1Cl,0.755%
9,c1ccc(C2CCCN(c3ncnc4[nH]cnc34)C2)cc1 (centres unmarked),-3.24%
10,CCN1CCN(Cc2ccc(Br)o2)CC1,4.57%
11,C/C(Nc1ccc(Cl)cc1)=C1\C(=O)NC(=O)N(Cc2ccccc2)C1=O,4.33%
12,C=CCNC(=O)/C(C#N)=C/c1c(Oc2ccccc2OC)nc2ccccn2c1=O,3.63%
13,Cc1nn(-c2ccccc2)c(C)c1Sc1ccc([N+](=O)[O-])cc1,11.3%
14,COc1ccc(C(=O)/C=C/c2ccc3c(c2)OCO3)c(OC)c1,-1.25%
15,C#CCN(C)CC(=O)Nc1ccc(Br)cc1,0.215%
16,Cc1nc2ccc(S(=O)(=O)CCC(=O)NCc3cccs3)cc2s1,-5.88%
17,CCc1c(C#N)c(SCCC(=O)Nc2ccc(OC)cc2)nc2c1C(=O)CC(C)(C)C2,-11.9%
18,COc1ccccc1OCC(=O)Nc1ccc(NC(C)=O)cc1,4.31%
19,Cc1nc(N2CCC(C)CC2)c2c(C)c(C(=O)NCC3COc4ccccc4O3)sc2n1 (centres unmarked),2.38%
20,Cn1c(SCC(N)=O)nc2c(c1=O)SCC2,0.205%
21,CCCN1CCN(C(=O)C2CCN(c3nn4cc(-c5ccc(OC)cc5)nc4s3)CC2)CC1,-1.41%
22,C=CCOC(=O)C1=C(C)NC(=O)NC1c1cccc(Oc2ccccc2)c1 (centres unmarked),-3.69%
23,CCCc1cc(O)nc(SCC(=O)Nc2ccc(C)cc2C)n1,-1.04%
